Results published in publication PMC10668032.
Some of the results follow. At the low end of the ranking the order means little.

These sequences were tested against SIX1-Q177R homeodomain (UniProt Q15475) (assay: universal protein binding microarray). Details: Universal all-10-mer PBM (8x60K, AMADID 030236), 300 nM GST-tagged protein, Alexa Fluor 488 anti-GST; buffer, salt, pH and temperature not stated; high values mean tight binding; most listed sequences are background and not binding sites; double strand, one strand shown.

| Sequence | binding signal [E-score] |
| --- | --- |
| AACGATCG | -0.141 |
| ACGATCAC | -0.0516 |
| CAAATAGA | -0.178 |
| CATGCGAA | -0.172 |
| AGGCATTA | -0.142 |
| ACGCTTGC | -0.000685 |
| GTTAGCAA | 0.0242 |
| AGACTCTC | -0.176 |
| CTATACGC | -0.0146 |
| ATATATTG | -0.122 |
| AGAATCCA | -0.0643 |
| GACTGTGA | -0.214 |
| CTGGACCC | -0.0556 |
| GGTATACC | 0.303 |
| GCTGAGTA | -0.121 |
| CCGAGCGA | 0.0518 |
| CGCAGGAC | -0.0831 |
| CCATAAGG | 0.065 |
| CAGGATGC | -0.21 |
| GGATGGAC | -0.148 |
| CCTAATTC | -0.105 |
| CGTTAACA | 0.0987 |
| AACTACAT | -0.0188 |
| CTTGATAC | 0.195 |
| GTACGGCA | 0.0153 |

| Sequence | binding signal [E-score] |
| --- | --- |
| CTACGCTA | -0.0821 |
| AATCATCG | -0.187 |
| ACGTTCAA | 0.0393 |
| CCGGAAAG | -0.103 |
| AGGTGGGC | -0.0578 |
| GCGGTAGC | -0.0763 |
| ATCAGATA | 0.0994 |
| CTTCGATC | -0.0851 |
| CTCAGCGC | -0.151 |
| CCGAGAGG | -0.186 |
| AATGCAAT | -0.207 |
| CAGCACAA | -0.00564 |
| ATTTGCCG | -0.0409 |
| ATATGGAA | -0.101 |
| AAGCGAGG | -0.0201 |
| AAGCTAAT | -0.28 |
| CGAAAAAC | 0.0789 |
| ACCACAAT | 0.0527 |
| GACATCCA | -0.135 |
| ATGAAACC | 0.0557 |
| CATCCAAG | 0.00459 |
| TAGGACAA | -0.147 |
| ATCGGCGA | -0.0714 |
| CATTCTGG | -0.107 |
| ACGACAGT | -0.233 |

| Sequence | binding signal [E-score] |
| --- | --- |
| ATACGCTA | 0.0121 |
| GAATCTTA | -0.241 |
| ATGCCTGG | -0.0189 |
| AGAAGCTA | -0.205 |
| AGATATGA | -0.106 |
| CATGCTGC | -0.0554 |
| CCGTGGGA | -0.0725 |
| AGAACGAC | 0.0149 |
| AGCGCATC | -0.198 |
| GTTGTGCA | 0.0787 |
| GGCGTTAC | 0.154 |
| GGGGTATA | 0.274 |
| AAGAATCC | -0.144 |
| TGGTAAAA | -0.262 |
| ACTTATTG | -0.144 |
| AGCCTCGG | -0.15 |
| ACACCTCC | 0.472 |
| CAAGTGCA | 0.0819 |
| ACACCCAT | 0.458 |
| ACATTCTC | -0.292 |
| ACCCCTAT | 0.172 |
| AAAACAGG | -0.0885 |
| CTCCGCAG | -0.0804 |
| ACGACAAG | 0.0771 |
| TAGCGGGA | -0.201 |

| Sequence | binding signal [E-score] |
| --- | --- |
| CGTCTGCA | -0.091 |
| CCCCAGTA | 0.0966 |
| TGGGCACA | -0.0583 |
| AGCGTCTC | -0.0572 |
| AGGCGACG | -0.103 |
| AGGCTAGA | -0.0743 |
| GGTACAGA | -0.119 |
| AATGTCTC | 0.0254 |
| AGTCCGGC | -0.00563 |
| CTGGACTC | -0.12 |
| AATAGAGT | 0.0466 |
| AAGGATTC | -0.0467 |
| CATTATGC | -0.0391 |
| TCTACAGA | -0.176 |
| AACCTCGG | 0.0562 |
| CATTCATA | -0.164 |
| ATAGAACA | 0.141 |
| ATCCACAC | 0.297 |
| GTCAGGAC | 0.0108 |
| AGCCTATG | -0.149 |
| CTCGCGGA | -0.268 |
| ATGAGACG | -0.128 |
| ACACACAC | 0.315 |
| TACCGCAA | 0.0111 |
| AAAAGACT | -0.188 |

| Sequence | binding signal [E-score] |
| --- | --- |
| CTGACAAG | -0.184 |
| GGGCAACC | 0.0973 |
| GCGGGGCC | -0.0662 |
| GCTGGGCC | -0.142 |
| AGTTGTGA | -0.127 |
| ACAGCGCC | -0.127 |
| CAGGCCCC | -0.104 |
| AAATGATG | -0.261 |
| CAGCCACG | -0.189 |
| GCTGCAAA | -0.136 |
| ACGAGAAA | -0.0679 |
| AGCATTGA | -0.183 |
| ATGCCCGG | 0.0355 |
| GCGTGGCA | -0.077 |
| ATGTCAAA | -0.148 |
| CGTTCTAG | -0.0412 |
| AGGACCGC | -0.268 |
| AGGTGATA | 0.129 |
| AAGACTCA | -0.135 |
| CCAGTTAC | 0.0719 |
| TATAAGGA | 0.0925 |
| TTGGGAAA | -0.2 |
| CAATTACC | -0.0657 |
| GTGTATGA | 0.412 |
| CGTGGTAG | -0.0925 |

| Sequence | binding signal [E-score] |
| --- | --- |
| AACCAGGA | -0.0866 |
| CTGGGGCA | -0.15 |
| ATAGGAAG | 0.0255 |
| GAGGAGGC | -0.202 |
| ACTCTTCG | 0.0294 |
| CGATCATA | -0.0491 |
| ACCAGAAC | 0.161 |
| GCCGACAA | -0.0657 |
| CGTACATC | 0.0867 |
| ATCGAGGC | -0.219 |
| ACTAGGCC | -0.19 |
| ACACTGCT | 0.339 |
| ATCCCAAT | 0.00288 |
| CGGCTCTC | -0.221 |
| CTGGTTCA | 0.0219 |
| CGGTAGTC | -0.114 |
| GTTTTTTA | -0.0452 |
| AAAATCTT | -0.394 |
| GGAGCCTA | -0.0476 |
| CTGAGAAA | -0.105 |
| AGGGCCGC | 0.00279 |
| AGGCTTCA | -0.0936 |
| CTCGGTAC | 0.0692 |
| ACGGCAGA | -0.165 |
| ATCAAGAA | -0.229 |

| Sequence | binding signal [E-score] |
| --- | --- |
| ACGATTCG | 0.0235 |
| ATCACGAG | -0.132 |
| TACACGAA | 0.377 |
| CCAAAAGC | -0.229 |
| GTGACAAA | 0.00911 |
| CCACAATA | 0.0179 |
| AAAGCAAC | -0.0904 |
| CTGTGTTC | 0.175 |
| CGCCTACG | -0.163 |
| CAACTCCC | 0.0167 |
| CAGCATCA | 0.0495 |
| ATAATTAC | 0.00456 |
| AAATACAG | -0.276 |
| ACCAAATC | -0.0235 |
| ACTGCAGA | -0.0627 |
| AATCCTCT | -0.146 |
| CGGACTTC | -0.17 |
| CCAGTAAC | 0.161 |
| AGTGGCCA | -0.102 |
| ATGTACAC | 0.435 |
| CTCCACTA | 0.103 |
| ATAAGGAA | -0.177 |
